From patent EP3858439A1 (priority 2020, dated 2021) come the findings set out here.

For the assay, the target named is human α2δ-1 subunit of Cav2.2 calcium channel (Homo sapiens, UniProt P54289). As to the kind of experiment: Binding assay to human α2δ-1 subunit of Cav2.2 calcium channel ([3H]-Gabapentin displacement). As to the method:
Binding assay to human α2δ-1 subunit of Cav2.2 calcium channel.
Human α2δ-1 enriched membranes (2.5 µg) were incubated with 15 nM of radiolabeled [3H]-Gabapentin in assay buffer containing Hepes-KOH 10 mM, pH 7.4.
NSB (non specific binding) was measured by adding 10 µM pregabalin. The binding of the test compound was measured at either one concentration (% inhibition at 1 or 10 µM) or five different concentrations to determine affinity values (Ki). After 60 min incubation at 27 °C, binding reaction was terminated by filtering through Multiscreen GF/C (Millipore) presoaked in 0.5 % polyethyleneimine in Vacuum Manifold Station, followed by 3 washes with ice-cold filtration buffer containing 50 mM Tris-HCI, pH 7.4.
Filter plates were dried at 60 °C for 1 h and 30µl of scintillation cocktail were added to each well before radioactivity reading.
Readings were performed in a Trilux 1450 Microbeta radioactive counter (Perkin Elmer).

Setting [1] is: read-out: Binding α2δ-1, Table 2, human α2δ-1 enriched membranes, 15 nM [3H]-Gabapentin, 60 min at 27 °C.

Structures can show the parent of a compound that is named as a salt. Where two headings read alike, the source gives them in different places.

Chain of human α2δ-1 subunit of Cav2.2 calcium channel (P54289 25-1103): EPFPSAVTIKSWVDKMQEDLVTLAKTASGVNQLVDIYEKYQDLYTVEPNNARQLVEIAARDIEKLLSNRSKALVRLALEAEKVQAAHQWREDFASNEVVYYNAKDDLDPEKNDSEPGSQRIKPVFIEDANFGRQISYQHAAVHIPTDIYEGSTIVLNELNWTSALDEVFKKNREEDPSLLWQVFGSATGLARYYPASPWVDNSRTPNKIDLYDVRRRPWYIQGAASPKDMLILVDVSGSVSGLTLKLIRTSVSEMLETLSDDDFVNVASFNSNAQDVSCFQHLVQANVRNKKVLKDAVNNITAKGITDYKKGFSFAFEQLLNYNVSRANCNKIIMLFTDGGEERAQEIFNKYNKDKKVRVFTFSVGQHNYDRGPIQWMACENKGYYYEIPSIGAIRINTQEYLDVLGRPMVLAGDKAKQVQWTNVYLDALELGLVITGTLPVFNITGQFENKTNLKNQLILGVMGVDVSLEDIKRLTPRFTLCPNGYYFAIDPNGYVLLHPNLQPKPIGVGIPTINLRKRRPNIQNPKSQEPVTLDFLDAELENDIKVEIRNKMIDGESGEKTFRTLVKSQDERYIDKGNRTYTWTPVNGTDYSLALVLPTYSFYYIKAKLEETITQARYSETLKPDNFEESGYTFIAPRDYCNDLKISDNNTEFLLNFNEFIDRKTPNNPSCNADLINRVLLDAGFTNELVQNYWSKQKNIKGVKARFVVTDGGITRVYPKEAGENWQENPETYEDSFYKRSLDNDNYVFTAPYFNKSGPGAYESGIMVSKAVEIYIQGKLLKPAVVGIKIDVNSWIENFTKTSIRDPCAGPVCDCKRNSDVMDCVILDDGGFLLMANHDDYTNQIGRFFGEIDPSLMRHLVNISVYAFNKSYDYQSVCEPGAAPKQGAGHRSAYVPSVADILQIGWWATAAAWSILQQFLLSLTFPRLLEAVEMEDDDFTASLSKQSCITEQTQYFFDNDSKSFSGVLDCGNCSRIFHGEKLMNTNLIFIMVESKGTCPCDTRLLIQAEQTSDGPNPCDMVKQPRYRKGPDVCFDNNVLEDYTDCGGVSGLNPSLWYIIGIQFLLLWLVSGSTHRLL

Take `CNCC(Cc1ccccc1F)C(=O)N1CCC(c2ccccc2)(N(C)C)CC1` (stereo not shown) [Example 57, 1-(4-(dimethylamino)-4-phenylpiperidin-1-yl)-2-(2-fluorobenzyl)-3-(methylamino)propan-1-one dihydrochloride]: the Ki lay in the range of 500 to 5000 nM. Besides, the Ki under setting [1] fell in the range of 500 to 5000 nM.

On to `CNC[C@@H](C(=O)N1CCC(c2cccc(O)c2)(N(C)C)CC1)[C@@H](C)c1ccccc1` [Example 16, (2S,3R)-1-(4-(dimethylamino)-4-(3-hydroxyphenyl)piperidin-1-yl)-2-((methylamino)methyl)-3-phenylbutan-1-one dihydrochloride], for which the Ki was < 500 nM. The Ki under setting [1] is < 500 nM.

With `CC[C@@H](c1ccccc1)[C@@H](CNC)C(=O)N1CCC(NC)(c2ccccc2)CC1` [Example 17, (2S,3R)-1-(4-(methylamino)-4-phenylpiperidin-1-yl)-2-((methylamino)methyl)-3-phenylpentan-1-one dihydrochloride], the Ki was < 500 nM. Also, under setting [1], the Ki was < 500 nM. `CN(C)C1(c2ccccc2)CCN(C(=O)[C@@H](CN)[C@@H]2CCCc3ccccc32)CC1` (racemic) [Example 77, (RS)-3-Amino-1-(4-(dimethylamino)-4-phenylpiperidin-1-yl)-2-((SR)-1,2,3,4-tetrahydronaphthalen-1-yl)propan-1-one]: the Ki was 500 to 5000 nM. Under setting [1], the Ki fell in the range of 500 to 5000 nM. For the compound `CC[C@@H](c1cccc(Cl)c1)[C@@H](CN)C(=O)N1CCC(c2ccccc2)(N(C)C)CC1` [Example 66, (2S,3R)-2-(aminomethyl)-3-(3-chlorophenyl)-1-(4-(dimethylamino)-4-phenylpiperidin-1-yl)pentan-1-one], the Ki is < 500 nM. The Ki under setting [1] was < 500 nM.

For the compound `CNCC(Cc1ccccc1)C(=O)N1CCC(c2cccc(O)c2)(N(C)C)CC1` (stereo not shown) [Example 34, 2-benzyl-1-(4-(dimethylamino)-4-(3-hydroxyphenyl)piperidin-1-yl)-3-(methylamino)propan-1-one dihydrochloride], the Ki is 500 to 5000 nM. Under setting [1], the Ki lay in the range of 500 to 5000 nM. Consider `CNCC(Cc1ccccc1)C(=O)N1CCC(c2ccccc2)(N(C)C)CC1` (stereo not shown) [Example 70, 2-benzyl-1-(4-(dimethylamino)-4-phenylpiperidin-1-yl)-3-(methylamino)propan-1-one], for which the Ki lay within 500 to 5000 nM. The Ki under setting [1] was in the range of 500 to 5000 nM. Regarding `C[C@H](N)[C@H](Cc1ccccc1)C(=O)N1CCC(c2ccccc2)(N(C)C)CC1` [Example 48, (2S,3S)-3-amino-2-benzyl-1-(4-(dimethylamino)-4-phenylpiperidin-1-yl)butan-1-one dihydrochloride], the Ki is > 5000 nM. Besides, the Ki under setting [1] is > 5000 nM. Turning to `CC[C@@H](c1cccc(F)c1)[C@@H](CNC)C(=O)N1CCC(c2ccccc2)(N(C)C)CC1` [Example 21, (2S,3R)-1-(4-(dimethylamino)-4-phenylpiperidin-1-yl)-3-(3-fluorophenyl)-2-((methylamino)methyl)pentan-1-one], the Ki was < 500 nM. In addition, the Ki under setting [1] was < 500 nM. For the compound `CNC[C@@H](C(=O)N1CCC(c2ccccc2)(N(C)C)CC1)[C@@H](C)c1ccccc1` [Example 1, (2S,3R)-1-(4-(Dimethylamino)-4-phenylpiperidin-1-yl)-2-((methylamino)methyl)-3-phenylbutan-1-one dihydrochloride], the Ki was < 500 nM. Moreover, the Ki under setting [1] is < 500 nM. Turning to `C[C@@H](c1ccccc1)[C@@H](CN)C(=O)N1CCC(c2ccccc2)(N(C)C)CC1` [Example 7, (2S,3R)-2-(aminomethyl)-1-(4-(dimethylamino)-4-phenylpiperidin-1-yl)-3-phenylbutan-1-one dihydrochloride], the Ki is < 500 nM. For the same compound, the Ki under setting [1] is < 500 nM. Take `CC[C@@H](c1ccccc1)[C@@H](CNC)C(=O)N1CC(NC)(c2ccccc2)C1` [Example 23, (2S,3R)-1-(3-(methylamino)-3-phenylazetidin-1-yl)-2-((methylamino)methyl)-3-phenylpentan-1-one dihydrochloride]: the Ki was < 500 nM. As to `CNCC(Cc1ccccc1C#N)C(=O)N1CCC(c2ccccc2)(N(C)C)CC1` (stereo not shown) [Example 55, 2-(3-(4-(dimethylamino)-4-phenylpiperidin-1-yl)-2-((methylamino)methyl)-3-oxopropyl)benzonitrile dihydrochloride], the Ki was 500 to 5000 nM. Besides, the Ki under setting [1] was 500 to 5000 nM. `CC[C@@H](c1ccccc1)[C@@H](CNC)C(=O)N1CCC(NC)(c2ccc(F)cc2)CC1` [Example 65, (2S,3R)-1-(4-(4-fluorophenyl)-4-(methylamino)piperidin-1-yl)-2-((methylamino)methyl)-3-phenylpentan-1-one]: the Ki was < 500 nM. The Ki under setting [1] is < 500 nM. For the compound `CC[C@@H](c1ccccc1)[C@@H](CN)C(=O)N1CC(c2ccccc2)(N(C)C)C1` [Example 10, (2S,3R)-2-(aminomethyl)-1-(3-(dimethylamino)-3-phenylazetidin-1-yl)-3-phenylpentan-1-one], the Ki is < 500 nM. Under setting [1], the Ki was < 500 nM.

Take `CNC[C@@H](C(=O)N1CCC(c2ccccc2)(N(C)C)CC1)[C@H](C)c1ccccc1` [Example 85, (2S,3S)-1-(4-(Dimethylamino)-4-phenylpiperidin-1-yl)-2-((methylamino)methyl)-3-phenylbutan-1-one]: the Ki is > 5000 nM. Also, under setting [1], the Ki was > 5000 nM. For the compound `CN(C)C1(c2ccccc2)CCN(C(=O)[C@H](CN)[C@H]2CCc3ccccc32)CC1` [Example 82, (S)-3-amino-2-((R)-2,3-dihydro-1H-inden-1-yl)-1-(4-(dimethylamino)-4-phenylpiperidin-1-yl)propan-1-one], the Ki was 500 to 5000 nM. For the compound `CNC[C@@H](C(=O)N1CCC(c2ccccc2)(N(C)C)CC1)[C@@H](C)c1ccccc1F` [Example 14, (2S,3R)-1-(4-(dimethylamino)-4-phenylpiperidin-1-yl)-3-(2-fluorophenyl)-2-((methylamino)methyl)butan-1-one dihydrochloride], the Ki is < 500 nM. In addition, under setting [1], the Ki is < 500 nM. Regarding `CNC[C@@H](C(=O)N1CCC(c2cccc(F)c2)(N(C)C)CC1)[C@@H](C)c1ccccc1` [Example 3, (2S,3R)-1-(4-(dimethylamino)-4-(3-fluorophenyl)piperidin-1-yl)-2-((methylamino)methyl)-3-phenylbutan-1-one], the Ki is < 500 nM. Further, the Ki under setting [1] is < 500 nM. As to `CC[C@@H](c1ccccc1)[C@@H](CNC)C(=O)N1CCC(c2ccccc2)(N(C)C)CC1` [Example 13, (2S,3R)-1-(4-(dimethylamino)-4-phenylpiperidin-1-yl)-2-((methylamino)methyl)-3-phenylpentan-1-one dihydrochloride], the Ki was < 500 nM. Also, under setting [1], the Ki was < 500 nM. Regarding `CNC1(c2ccccc2)CCN(C(=O)[C@H](CN)[C@@H](C)c2ccccc2)CC1` [Example 9, (2S,3R)-2-(aminomethyl)-1-(4-(methylamino)-4-phenylpiperidin-1-yl)-3-phenylbutan-1-one], the Ki was < 500 nM. The Ki under setting [1] was < 500 nM.
